{"source": "PubChem BioAssay AID463173", "about": "(ICCB-Longwood Screening Facility, Harvard Medical School, 2010)", "note": "The whole screen tested about 52,000 compounds, of which about 1,700 (3.3%) were called active. Rule as the data show it: active = survival mostly below about 52% (no sharp cut-off); inactive = mostly above about 56%. Some of the results follow.", "data": [{"test_system": "Wild type", "experiment": "growth inhibition of S. aureus wild type versus tarO mutant, primary screen, teichoic acid synthesis inhibitors, RN4220, OD600 (AID 463173)", "conditions": "S. aureus RN4220 wild type/DeltatarO growth, OD600, 18 h, active compounds read low, screened at 18.75 µg/mL (by protocol)", "values": [{"smiles": "CCOC(=O)Cc1csc(NC(=O)CSc2nc3c(C)c(C)ccc3cc2C#N)n1", "survival": "inactive: 103%"}, {"smiles": "COc1ccc(Cn2ccc3nc(C)c(C(=O)Nc4cccc(SC)c4)cc3c2=O)cc1", "survival": "inactive: 69%"}, {"smiles": "Oc1c(C(Nc2ccccn2)c2ccccc2F)ccc2cccnc12", "note": "(stereo unspecified)", "survival": "inactive: 135%"}, {"smiles": "Cc1ccc(NC(=O)C2CCN(S(=O)(=O)c3cccc4nsnc34)CC2)cc1F", "survival": "inactive: 91%"}, {"smiles": "CCCNC(=O)c1ccc2c(c1)nc1n2CCCCC1", "survival": "inactive: 78%"}, {"smiles": "Cc1noc(C)c1S(=O)(=O)N(CC(=O)Nc1ccc(F)cc1F)c1ccc(C(C)C)cc1", "survival": "inactive: 79%"}, {"smiles": "CC1Cc2ccccc2N1C(=O)c1cnsn1", "note": "(stereo unspecified)", "survival": "inactive: 94%"}, {"smiles": "CC1CN(C(=O)N(C)C)CCN1C(=O)N(C)C", "note": "(stereo unspecified)", "survival": "inactive: 98%"}, {"smiles": "COc1ccc(NC(=O)C(=O)NCCc2csc3nc(-c4ccccc4F)nn23)cc1OC", "survival": "inactive: 63%"}, {"smiles": "O=C(NC12CCC(O)C(SC1)/C2=N/O)c1ccccc1", "note": "(stereo unspecified)", "survival": "inactive: 108%"}, {"smiles": "O=C1C2C3C=CC(C3)C2C(=O)N1CCN1C(=O)C2C3C=CC(C3)C2C1=O", "note": "(stereo unspecified)", "survival": "inactive: 113%"}, {"smiles": "CC(=O)c1ccc(NS(=O)(=O)c2ccc3c(c2)NC(=O)CCS3)cc1", "survival": "inactive: 82%"}, {"smiles": "CCn1cc2nc(SCc3ccccc3Cl)n(Cc3ccc(OC)cc3)c(=O)c2n1", "survival": "inactive: 85%"}, {"smiles": "COc1cccc(CNC(=O)c2ccc(-c3nc(CSc4ccccc4)c(C)o3)cc2)c1", "survival": "inactive: 51%"}, {"smiles": "COc1ccc(C(Nc2ccccn2)c2ccc3ccc(C)nc3c2O)cc1C", "note": "(stereo unspecified)", "survival": "inactive: 62%"}, {"smiles": "CC(=O)Nc1ccccc1-c1nc2ccccc2n(C(C)C(=O)Nc2ccccc2C(F)(F)F)c1=O", "note": "(stereo unspecified)", "survival": "inactive: 102%"}, {"smiles": "COc1ccc(-c2c(C)c3ccc(O)c(CN4CCC(C)CC4)c3oc2=O)cc1OC", "survival": "inactive: 73%"}, {"smiles": "CC(=O)Nc1ccc(S(=O)(=O)n2cnc3cc(C)c(C)cc32)cc1", "survival": "inactive: 112%"}, {"smiles": "CCCN(CCC)CCCNC(=O)c1cc2c(=O)n(C)c3ccccc3c2s1", "survival": "inactive: 130%"}, {"smiles": "Cc1cccc(N2CCN(C3=C(c4ccccc4)C(=O)c4ccccc43)CC2)c1C", "survival": "inactive: 71%"}, {"smiles": "COc1cc(OC)c(OC)cc1/C=C/c1nc2cc3ccccc3cc2c(=O)n1-c1ccccc1Br", "survival": "inactive: 68%"}, {"smiles": "Cc1ccc(CNC(=O)c2cc(=O)c3cc(C)ccc3o2)cc1", "survival": "inactive: 85%"}, {"smiles": "CN1CCN(c2ncnc3c2cnn3-c2cccc(Cl)c2)CC1", "survival": "inactive: 78%"}, {"smiles": "COc1cc2c(c(OC)c1)C(c1cccc(F)c1F)CC(=O)N2", "note": "(stereo unspecified)", "survival": "inactive: 82%"}, {"smiles": "CC(=O)N/C(N)=N\\c1nc(C)c2ccc(C)cc2n1", "survival": "inactive: 110%"}, {"smiles": "CCOC(=O)c1c(NC(=O)c2cc(=O)c3cc(C)ccc3o2)sc2c1CCCC2", "survival": "inactive: 88%"}, {"smiles": "COc1ccc(Cl)cc1NC(=O)CSC1=Nc2ccccc2C2=NC(CCC(=O)NCc3ccco3)C(=O)N12", "note": "(stereo unspecified)", "survival": "inactive: 83%"}, {"smiles": "Cc1ccc(Cn2c(CCNC(=O)c3cccc(C)c3)nc3ccccc32)cc1", "survival": "inactive: 68%"}, {"smiles": "Cc1ccc(S(=O)(=O)N2CCN(Cc3ccccc3Cl)CC2)cc1", "survival": "active: 19%"}, {"smiles": "Cc1cccc(NC(=O)CN2C(=O)C3(SCC(=O)N3c3ccccc3)c3ccccc32)c1", "note": "(stereo unspecified)", "survival": "inactive: 124%"}, {"smiles": "Cc1ccc(Cn2c(C(=O)O)c(CNCc3ccc(C)o3)c3ccc(C)cc32)cc1", "survival": "inactive: 65%"}, {"smiles": "N#Cc1c(NC(=O)c2cnn3c(C(F)(F)F)cc(-c4ccco4)nc23)sc2c1CCCC2", "survival": "inactive: 100%"}, {"smiles": "O=C(NCCc1ccccc1)c1ccc2c(c1)N(Cc1ccc(F)cc1)C(=O)CS2", "survival": "inactive: 88%"}, {"smiles": "O=C(NCCC1=CCCCC1)c1ccc2c(c1)sc1nc(-c3ccc(F)cc3)cn12", "survival": "inactive: 71%"}, {"smiles": "CC(C)Cn1cc(NC(=O)NCc2cccc(Cl)c2)c2ccccc2c1=O", "survival": "inactive: 92%"}, {"smiles": "O=C(c1cc2sccc2n1Cc1ccc(F)cc1)N1CCc2ccccc2C1", "survival": "inactive: 129%"}, {"smiles": "COc1ccc(NC(=O)c2cccc(N3CCCS3(=O)=O)c2)c(OC)c1", "survival": "inactive: 68%"}, {"smiles": "Cc1ccc2oc(C(=O)Nc3sc4c(c3C(=O)NCC3CCCO3)CCC4)cc(=O)c2c1", "note": "(stereo unspecified)", "survival": "inactive: 82%"}, {"smiles": "COc1cc(OC)c(C2CC(=O)Nc3ccc4ccccc4c32)cc1OC", "note": "(stereo unspecified)", "survival": "inactive: 127%"}, {"smiles": "COC(=O)c1ccccc1NC(=O)c1nc(-c2ccc(C)cc2)n2c1CCCCC2", "survival": "inactive: 86%"}, {"smiles": "O=C(CN1C(=O)CSC1=O)NCc1ccccc1", "survival": "inactive: 106%"}, {"smiles": "CC(NC(=O)c1cc2c(=O)n3ccccc3nc2n(C(C)C)c1=N)c1ccccc1", "note": "(stereo unspecified)", "survival": "inactive: 76%"}, {"smiles": "CC(NC(=O)Cn1c(=O)oc2cc(S(=O)(=O)N3CCCCCC3)ccc21)c1ccccc1", "note": "(stereo unspecified)", "survival": "inactive: 93%"}, {"smiles": "Cc1ccc(CCNS(=O)(=O)c2ccc3c(c2)C(C(C)C)C(=O)N3)cc1", "note": "(stereo unspecified)", "survival": "inactive: 136%"}, {"smiles": "COc1cc(NC(=O)CN2C(=O)CCc3cc(Br)ccc32)cc(OC)c1OC", "survival": "inactive: 75%"}, {"smiles": "Cc1cccc(OC(=O)CSc2nnc(-c3ccc4c(c3)OCO4)o2)c1C", "survival": "inactive: 80%"}, {"smiles": "Cc1ccc(C2=NN(CC(=O)NCCc3ccccc3)C(=O)CC2)cc1", "survival": "inactive: 69%"}, {"smiles": "COc1cccc(Cn2c(=O)n(CC3CCC(C(=O)NC(C)C)CC3)c(=O)c3sccc32)c1", "note": "(stereo unspecified)", "survival": "inactive: 75%"}, {"smiles": "Cc1cn(C)c(CC(=O)NCc2ccc(Cl)cc2)c1C(=O)O", "survival": "inactive: 66%"}, {"smiles": "CC(=O)N1c2ccccc2C(=O)C1N1CCN(c2cccc(Cl)c2)CC1", "note": "(stereo unspecified)", "survival": "inactive: 73%"}, {"smiles": "Cc1cccc(-c2noc(-c3cc(C(C)C)[nH]n3)n2)c1", "survival": "inactive: 99%"}, {"smiles": "Nc1ccccc1-c1nc2ccccc2s1", "survival": "inactive: 112%"}, {"smiles": "COc1ccccc1NC(=O)CC(C)n1nc(C)cc1C", "note": "(stereo unspecified)", "survival": "inactive: 76%"}, {"smiles": "CCOc1ccc(C2c3c(-c4cc(C)ccc4O)n[nH]c3C(=O)N2Cc2cccnc2)cc1OCC", "note": "(stereo unspecified)", "survival": "inactive: 100%"}, {"smiles": "Cc1ccc2c(=O)c(C(=O)c3cccc(Cl)c3)cn(CC(=O)NC3CCCCC3)c2n1", "survival": "inactive: 126%"}, {"smiles": "CCOC(=O)c1ccc(NC(=O)CSc2nc3c(c(=O)[nH]2)CN(Cc2ccccc2)CC3)cc1", "survival": "inactive: 75%"}, {"smiles": "COc1ccc(OC)c(CCNC(=O)CCCn2c(=O)c3cccn3c3ccc(F)cc32)c1", "survival": "inactive: 101%"}, {"smiles": "Cc1cc(F)ccc1NC(=O)CCS(=O)(=O)c1cc2c(cc1C)NC(=O)CO2", "survival": "inactive: 95%"}, {"smiles": "COc1ccccc1Nc1ncc2c(n1)CCN(Cc1ccc(C)s1)C2", "survival": "inactive: 59%"}, {"smiles": "COc1ccc(-n2nc3c(N4CCC(C(=O)NCc5ccccc5C)CC4)nnc(C)c3c2C)cc1", "survival": "inactive: 138%"}, {"smiles": "CCOC(=O)N1CCC(NC(=O)c2c(C)nn(-c3cccc(C)c3)c2-n2cccc2)CC1", "survival": "inactive: 85%"}, {"smiles": "Cc1ccc(N(CC(=O)N2CCN(c3ccc(F)cc3)CC2)S(=O)(=O)c2c(C)noc2C)cc1", "survival": "inactive: 75%"}, {"smiles": "CC(C)(C)C(=O)NCCc1nc2ccccc2n1CCCCOc1ccccc1", "survival": "inactive: 79%"}, {"smiles": "O=S(=O)(NCc1ccc(F)cc1)c1ccc(N2CCCCS2(=O)=O)cc1", "survival": "inactive: 95%"}, {"smiles": "COc1cccc(CNC(=O)Cn2ncc3c(=O)oc4ccccc4c32)c1", "survival": "inactive: 128%"}, {"smiles": "Cc1ccc(CSc2cn(CC(=O)N3CCCCCC3)c3ccccc23)cc1", "survival": "inactive: 88%"}, {"smiles": "CCOc1ccccc1CNCCCSc1nnnn1C", "survival": "inactive: 84%"}, {"smiles": "O=C(CC1CCCCC1)NCC1CCCO1", "note": "(stereo unspecified)", "survival": "inactive: 108%"}, {"smiles": "CCCN(Cc1cc2cccc(C)c2[nH]c1=O)C(=O)c1cccc(Cl)c1", "survival": "inactive: 94%"}, {"smiles": "CCN1CCN(Cc2c(C)[nH]c3c(C)cc(C)cc3c2=O)CC1", "survival": "inactive: 105%"}, {"smiles": "Cc1ccc(Cl)cc1NC(=O)Cn1c(=O)cc(C)c2c(C)nn(C)c21", "survival": "inactive: 132%"}, {"smiles": "Cc1cc(C)c(S(=O)(=O)Nc2ccc3oc(C)c(C(=O)OC(C)C)c3c2)cc1C", "survival": "inactive: 49%"}, {"smiles": "Cc1oc(-c2cccc(Cl)c2)nc1CN1CCC(C(=O)NC(C)C)CC1", "survival": "inactive: 92%"}, {"smiles": "Cc1ccc(CNC(=O)CCNS(=O)(=O)c2ccc3c(c2)oc(=O)n3C)cc1", "survival": "inactive: 129%"}, {"smiles": "Cc1ccc(-n2nc3cc(C)c(NC(=O)c4ccc(-c5ccccc5)o4)cc3n2)cc1", "survival": "inactive: 71%"}, {"smiles": "COc1cccc(C2CC(=O)Nc3c2c(=O)n(C)c2nc4ccccc4n32)c1OC", "note": "(stereo unspecified)", "survival": "inactive: 67%"}, {"smiles": "O=C(CCn1c(=O)c2sccc2n(Cc2ccc(F)cc2)c1=O)NCc1ccc2c(c1)OCO2", "survival": "inactive: 89%"}, {"smiles": "COc1cccc(Nc2nnc(-c3cc4ccc(O)cc4oc3=O)s2)c1", "survival": "inactive: 80%"}, {"smiles": "CCOc1ccc(NC(=O)Cn2c(=O)n(CCc3ccccc3)c(=O)c3c4c(sc32)CCCC4)cc1", "survival": "inactive: 90%"}, {"smiles": "Cc1ccc(NC(=O)CC2Oc3ccc(C)cc3NC2=O)c(C)c1", "note": "(stereo unspecified)", "survival": "inactive: 79%"}, {"smiles": "Cc1ccc(CSc2c(C)cnc3c2c(=O)n(C)c(=O)n3C)cc1", "survival": "inactive: 77%"}, {"smiles": "CC(=O)c1ccc(NC(=O)Cn2nc(C(F)(F)F)c3c2CCC3)cc1", "survival": "inactive: 66%"}, {"smiles": "COc1cccc2sc(NC(=O)c3ccc4c(c3)OCCO4)nc12", "survival": "inactive: 79%"}, {"smiles": "Cc1ccc(Cl)cc1N1CCN(C(=O)Cn2cnc3onc(-c4ccc(F)cc4)c3c2=O)CC1", "survival": "inactive: 70%"}, {"smiles": "CCc1nc2ccc(C(=O)N3CCN(c4ccccc4F)CC3)cc2nc1CC", "survival": "inactive: 68%"}, {"smiles": "O=C(Cn1ncc2c3ccccc3n(Cc3ccccc3)c2c1=O)NCc1cccs1", "survival": "inactive: 98%"}, {"smiles": "CCN(CC)CCNC(=O)CCn1c(=O)c2cccn2c2cccnc21", "survival": "inactive: 90%"}, {"smiles": "Cc1ccc2nc(-c3ccc(NC(=O)Cc4ccccc4)cc3)sc2c1", "survival": "inactive: 90%"}, {"smiles": "Nc1nc(CC(=O)NN=C2CCCCCC2)cs1", "survival": "inactive: 101%"}, {"smiles": "CCCCNC(=O)CCC1N=C2c3ccccc3N=C(SCC(=O)NCCc3ccc(OC)c(OC)c3)N2C1=O", "note": "(stereo unspecified)", "survival": "inactive: 75%"}, {"smiles": "COc1ccc(OC)c(-c2cc(C(=O)Nc3ccc(C)c(C)c3)no2)c1", "survival": "active: -9%"}]}]}
